62 compounds from PubChem BioAssay AID1963576 (National Center for Advancing Translational Sciences (NCATS), 2024) can be followed below.

The whole screen tested about 46,000 compounds, of which about 60 (0.1%) were called active. Roughly 3% stayed inconclusive and do not appear here. The call rests on the fitted dose curve; in most records, active means well fitted inhibition curve with a large enough effect; inconclusive means small, poorly fitted or top-dose-only effect; inactive means no such curve, though single readings can be large or run the other way. Some of the results follow.

This experiment can be described thus: Primary qHTS assay for Inhibitors of ovarian cancer metastasis using an organotypic tumor microenvironment (TME) model. Further: nearly all actives have a fitted effect of over 65% in size.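 On activity change, negative = inhibition: plate controls were DMSO wells for no effect and tomatine positive control wells for full effect.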 The note with it: SKOV3ip1-GFP adhesion/invasion on 3D omental model, fluorescence; series mostly up to 45.8 µM; activity change, negative = inhibition: at the top concentration. The method in brief: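 A 3D layer of primary human omental fibroblasts, mesothelial cells, fibronectin and collagen I, grown 48 hr, received SKOV3ip1-GFP cells in serum-free medium plus compounds at 0.36-46 umol/L. After 2 hr RT and 16 hr 37 C, fixed adherent GFP cells were counted; normalized to DMSO and tomatine.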
Background: In qHTS, concentration-response curves come from the screen itself.
For the compound `CC1=C(C(=O)Nc2ccc(C)cc2Cl)C2(CCCCC2)OC1=O`, the result was inactive.
`Cc1ccc(NC(=O)c2cc(CN3CCOCC3)on2)cc1Cl`: the “activity change, negative = inhibition” value was inactive: 0.799%.
Take `Nc1nn(-c2ccccc2)nc1C(=O)OCc1ccccc1Br`: the compound was classed as inactive.
Consider `Cc1ccccc1S(=O)(=O)Cc1ccc(C(=O)NCc2ccccc2Cl)o1`, for which the compound was called inactive.
Take `Cn1cc(-c2cc3n(n2)CCC(=O)N3CCCC(=O)Nc2ccccc2Cl)c2ccccc21`: the “activity change, negative = inhibition” value was inactive: 5.59%.
As to `COc1cc(-c2nc3ccc(Cl)cn3c2Nc2ccc3c(c2)OCO3)ccc1O`, the “activity change, negative = inhibition” value is inactive: -11.2%.
As for `O=C(c1cccs1)c1cn(CCOc2ccc(F)cc2)c2ccccc12`, the “activity change, negative = inhibition” value was inactive: -11.7%.
The same measure, in the same setting: the figure for `CCc1ccccc1NC(=O)c1cc2sc(Cl)cc2n1CC` is inactive: -1.08%; for `CCOC(=O)c1c(C)[nH]c(C)c1S(=O)(=O)NCC(=O)Nc1ccc(CC)cc1` it is inactive: 3.28%; for `COc1ccc2c(c1)CCc1c(C(=O)Nc3c(C)nn(Cc4c(Cl)cccc4Cl)c3C)noc1-2` it is inactive: -9.81%.
Same read-out and setting: the figure for `O=C(Nc1cccc(Nc2ncc(Br)c(NCCc3cnc[nH]3)n2)c1)N1CCCC1` is inactive: 14.5%.
On to `O=C(O)Cc1sc(Nc2ccc(C(=O)O)cc2)nc1-c1ccccc1`, for which the compound was called inactive.
Same read-out and setting: the entry for `CCOC(=O)c1noc2ncn(CC(=O)Nc3cc(Cl)ccc3OC)c(=O)c12` is “inactive”; for `O=C(Cn1cnc2onc(-c3ccc(F)cc3)c2c1=O)N1CCN(c2ccccc2F)CC1` it is “inactive”.
`Cc1ccc(CNC(=O)CN(C)S(=O)(=O)c2ccc(Br)s2)cc1`: the “activity change, negative = inhibition” value is inactive: 0.323%.
The same measure, in the same setting: with `CC(C)c1ccccc1NC(=O)CSc1nnc(COc2ccccc2)o1` the figure was inactive: -2.97%.
Consider `O=C(Nc1ccc(Cl)c(Cl)c1)c1cc(S(=O)(=O)N2CCN(c3cccc(Cl)c3)CC2)ccc1F`, for which the “activity change, negative = inhibition” value is inactive: -3.66%.
As for `Cc1oc2ncn(CC(C)C)c(=O)c2c1C(=O)Nc1cccc(C(F)(F)F)c1`, the “activity change, negative = inhibition” value was inactive: 3.6%.
Regarding `Cc1cc(Br)ccc1NC(=O)c1coc(=O)c2ccccc12`, the “activity change, negative = inhibition” value is inactive: 4.77%.
On to `COc1ccc(-c2cn(-c3ccc(C)cc3)c(S(=O)(=O)CC(=O)Nc3ccccc3)n2)cc1`, for which the “activity change, negative = inhibition” value is inactive: 4.62%.
`CCOc1ccccc1CNC(=O)CCCN1C(=O)COc2ccc(C)cc21`: the “activity change, negative = inhibition” value is inactive: -7.66%.
In the case of `CC(C)NC(=O)Cn1ccc2cc(S(=O)(=O)N3CCCCCC3)ccc21`, the compound was classed as inactive.
Consider `CCCOc1ccc(C(=O)NCC(c2ccc(OC)cc2)N2CCCCC2)cc1` (configuration not stated), for which the “activity change, negative = inhibition” value is inactive: -2.61%.
Same read-out and setting: the figure for `COc1ccc(-c2nnc(SCC(=O)Nc3ccccc3C)o2)cc1OC` is inactive: 4.14%.
Still for that read-out and setting: the figure for `Cc1nn(CCC(=O)NCc2cccc(Br)c2)c(=O)c2nn(-c3ccccc3)c(C)c12` is inactive: 1.51%.
On the same count and under the same terms, with `CC(C)OCCCn1c(SCC(N)=O)nc2c(sc3ccccc32)c1=O` the figure was inactive: -27.2%; with `O=C(NCCCCc1ccccc1)c1nn(-c2ccccc2F)nc1CO`, inactive: -0.891%.
As to `CCn1c(=O)c2sccc2n2c(CCC(=O)N3CCN(c4ccccc4OC)CC3)nnc12`, the compound was called inactive.
`C1Cc2[nH]nc(-c3nn[nH]n3)c2C1`: the “activity change, negative = inhibition” value was inactive: -6.88%.
As for `Cc1cccc(OCCCSc2nc(-c3ccc(C(C)(C)C)cc3)nc3cc(=O)[nH]n23)c1C`, the outcome was inactive.
`CC(NC(=O)c1ccc(CSc2nc3ccncc3n2Cc2ccc(F)cc2)cc1)c1ccccc1` (configuration not stated): the “activity change, negative = inhibition” value was inactive: -8.49%.
In the case of `O=S(=O)(c1ccccc1)c1nc(-c2cccs2)oc1N1CCCCC1`, the compound was classed as inactive.
Same read-out and setting: the entry for `COCCNC(=O)c1ccc2c(c1)N(Cc1ccc(C(F)(F)F)cc1)C(=O)c1ccccc1S2` is “inactive”.
For the compound `CCCCCn1c(=O)[nH]c2cc(C(=O)NCc3ccc(F)cc3)ccc2c1=O`, the “activity change, negative = inhibition” value was inactive: 9.85%.
On the same count and under the same terms, with `Cc1cccc(-n2c(=O)c3c(c4cc(C)ccc4n3C)n(CC(=O)Nc3ccccc3Cl)c2=O)c1` the figure was inactive: -9.95%.
Same read-out and setting: the figure for `O=C(O)[C@H](CC(=O)N1C[C@@H]2CCCC[C@H]2C1)Cc1ccccc1` is inactive: 9.32%.
On to `CC1CCN(S(=O)(=O)c2ccc3c(ccn3CC(=O)NCc3ccc(N(C)C)cc3)c2)CC1`, for which the result was inactive.
Still for that read-out and setting: the entry for `CC(C)c1ccc(S(=O)(=O)c2nnn3c2nc(N2CCOCC2)c2sccc23)cc1` is “inactive”.
Take `Cc1ccccc1OCC(=O)Nc1c(C)ccc2nsnc12`: the “activity change, negative = inhibition” value was inactive: -0.238%.
On the same count and under the same terms, with `COc1ccc(NS(=O)(=O)c2ccc3c(c2)CCCN3C(=O)C2CCC2)cc1OC` the figure was inactive: -7.92%.
On the same count and under the same terms, with `CCOC(=O)N1CCc2c(sc3c2c(=O)n(-c2ccc(CC)cc2)c(=O)n3CC(=O)c2ccccc2)C1` the figure was inactive: -4.55%.
On the same count and under the same terms, with `Cc1ccc(NC(=O)C2CCN(C(=O)c3cnn(-c4ccccc4)c3-n3cccc3)CC2)cc1` the figure was inactive: 105%; with `Cc1c(C(=O)Nc2ccccc2Br)oc2ccc(S(=O)(=O)N3CCOCC3)cc12`, inactive: -0.442%.
Consider `CCCCc1nn2c(=O)cc(COC(=O)C(C)Oc3ccccc3)nc2s1` (configuration not stated), for which the result was inactive.
In the case of `COc1nc(N)nc2c1ncn2[C@@H]1O[C@H](CO)[C@@H](O)[C@@H]1O`, the “activity change, negative = inhibition” value was inactive: -10.1%.
As to `CCC1CN(C(=O)N2CCC(C(=O)N3CCN(c4ccc(F)cc4)CC3)CC2)c2ccccc2O1` (configuration not stated), the “activity change, negative = inhibition” value is inactive: -4.87%.
On to `COc1ccc(Cl)cc1NC(=O)Cn1nc(C(F)(F)F)c2c1CCC2`, for which the outcome was inactive.
For `COc1ccc(CCC(=O)NCc2nc3cccnc3n2Cc2cccc(OC)c2)cc1`, the “activity change, negative = inhibition” value is inactive: -1.6%.
The same measure, in the same setting: the figure for `COc1ccccc1CNC(=O)C1CCN(Cc2cc3ccccc3n2Cc2cccc(C)c2)CC1` is inactive: -19.9%; for `O=C(NCc1ccccc1Cl)c1ccc(NC(=O)c2nsc3ccccc23)cc1` it is inactive: 1.06%.
Same read-out and setting: the figure for `Cc1ccccc1Cn1c(=O)n(CCCCC(=O)NCc2ccccc2Cl)c(=O)c2ccccc21` is inactive: -14.8%; for `CC(C)CNC(=O)c1c(-c2ccccc2)c(-c2ccccc2)nn(C)c1=O` it is inactive: -18.9%; for `COc1ccc2c(c1)CC(NC(=O)Nc1ccc(NC(C)=O)cc1)CO2` (configuration not stated) it is inactive: -4.55%.
Regarding `COc1ccc2c(Oc3ccc(NC(=O)c4c(C)n(CC(C)(C)O)n(-c5ccccc5)c4=O)cc3F)ccnc2c1`, the “activity change, negative = inhibition” value was inactive: 10.5%.
The same measure, in the same setting: the figure for `CCOc1ccc2nc(N3CCC(C(=O)Nc4ccc(Br)cc4F)CC3)sc2c1` is inactive: 19.4%; for `CCOc1cc(C)c(C(C)C)cc1S(=O)(=O)n1ccnc1CC` it is inactive: 2.51%.
The same measure, in the same setting: the figure for `CCOc1ccc(NC(=O)C2CCN(S(=O)(=O)c3ccc4c(c3)oc(=O)n4C)CC2)cc1` is inactive: 8.62%.
Consider `O=C(CSc1nnc(-c2ccncc2)n1-c1ccccc1)Nc1ccc(Br)cc1`, for which the compound was called inactive.
On the same count and under the same terms, the entry for `CCSc1ncc(Cl)c(C(=O)N(Cc2ccc(C(C)(C)C)cc2)C2CCS(=O)(=O)C2)n1` (configuration not stated) is “inactive”; for `COc1ccc2c(c1)c1c(c(=O)n(Cc3ccccc3)c(=O)n1Cc1ccccc1)n2C` it is “inactive”.
`CC(=O)N1CCOc2cc(S(=O)(=O)Nc3cc(C(F)(F)F)ccc3Cl)c(C)cc21`: the “activity change, negative = inhibition” value is inactive: 3.51%.
Same read-out and setting: the figure for `CCCNC(=O)c1c(NC(=O)c2ccc(C)cc2)sc2c1CCCCC2` is inactive: -1.18%.
